Counter-ions that a name gives are not always drawn. The list shows a part of the results.
test system: Schistosoma mansoni schistosomula; test: phenotypic hit in primary schistosomula screen (any phenotype vs DMSO control) (binary (1 = hit, 0 = no phenotype)); higher = active (phenotype induced); settings: 1 µM; time (d): 7

| Structure (SMILES) | phenotypic hit |
| --- | --- |
| COC(=O)[C@H]1[C@H]2C[C@@H]3c4[nH]c5cc(OC)ccc5c4CCN3C[C@H]2C[C@@H](OC(=O)c2cc(OC)c(OC)c(OC)c2)[C@@H]1OC [reserpine] | inactive: 0 |
| CC[C@H](CC[C@@H](C)[C@H]1CC[C@H]2[C@@H]3CC=C4C[C@@H](OC(C)=O)CC[C@]4(C)[C@H]3CC[C@]12C)C(C)C [sitosteryl acetate] | inactive: 0 |
| O=C(O[C@@H]1Cc2c(O)cc(O)cc2O[C@@H]1c1cc(O)c(O)c(O)c1)c1cc(O)c(O)c(O)c1 [epigallocatechin-3-monogallate] | inactive: 0 |
| C[C@]12CC[C@@H](O)C[C@H]1CCc1ccccc12 [3alpha-hydroxy-4,4-bisnor-8,11,13-podocarpatriene] | inactive: 0 |
| CNC[C@H](O)c1cccc(O)c1 [Phenylephrine hydrochloride] | inactive: 0 |
| COC(=O)C[C@H]1C(C)(C)[C@@H](OC(C)=O)[C@@H]2CC3=C4CC(=O)O[C@@H](c5ccoc5)[C@]4(C)CC[C@@H]3[C@@]1(C)C2=O [fissinolide] | inactive: 0 |
| CCN(CC)CCCC(C)Nc1c2ccc(Cl)cc2nc2ccc(OC)cc12 (stereo not drawn) [Quinacrine dihydrochloride] | active: 1 |
| O=C(O)P(=O)(O)O [foscarnet sodium] | inactive: 0 |
| CC1(C)C2CC(=O)O[C@@]3(C)C4=CC(=O)O[C@@H](c5ccoc5)[C@]4(C)CCC3[C@@]2(C)C=C[C@H]1O (stereo partly drawn) [deoxyandirobin lactone] | inactive: 0 |
| CC(=O)N1CCN(c2ccc(OCC3COC(Cn4ccnc4)(c4ccc(Cl)cc4Cl)O3)cc2)CC1 (stereo not drawn) [ketoconazole] | inactive: 0 |
| CC[C@]12CCCN3CCc4c(n(c5ccccc45)C(=O)C1)[C@@H]32 [eburnamonine] | inactive: 0 |
| CC1(C)[C@@H](O[C@H]2O[C@H](C(=O)O)[C@@H](O)[C@H](O)[C@H]2O[C@@H]2O[C@H](C(=O)O)[C@@H](O)[C@H](O)[C@H]2O)CC[C@]2(C)[C@H]3C(=O)C=C4[C@@H]5C[C@@](C)(C(=O)O)CC[C@]5(C)CC[C@@]4(C)[C@]3(C)CC[C@@H]12 [glycyrrhizic acid] | inactive: 0 |
| C[C@]12C=CC(=O)C=C1CC[C@@H]1[C@@H]2C(=O)C[C@@]2(C)[C@H]1CC[C@]2(O)C(=O)CO [prednisone] | inactive: 0 |
| CCOC(=O)CCC(=O)O[C@H]1[C@H](O[C@@H]2[C@@H](C)[C@H](O[C@H]3C[C@@](C)(OC)[C@@H](O)[C@H](C)O3)[C@@H](C)C(=O)O[C@H](CC)[C@@](C)(O)[C@H](O)[C@@H](C)C(=O)[C@H](C)C[C@@]2(C)O)O[C@H](C)C[C@@H]1N(C)C [erythromycin ethylsuccinate] | inactive: 0 |
| CS(=O)(=O)Nc1ccc([N+](=O)[O-])cc1Oc1ccccc1 [nimesulide] | inactive: 0 |
| CCn1cc(C(=O)O)c(=O)c2cc(F)c(N3CCNC(C)C3)c(F)c21 (stereo not drawn) [lomefloxacin hydrochloride] | inactive: 0 |
| Cc1occc(=O)c1/C=C/O [2-methyl-3-hydroxyethylenepyran-4-one] | inactive: 0 |
| C[C@]12CC[C@@H](O)C[C@H]1CC[C@@H]1[C@@H]2C(=O)C[C@@]2(C)[C@H]1CC[C@]2(O)C(=O)CO [tetrahydrocortisone] | inactive: 0 |
| Cc1c(O)cc(O)c2c(=O)c(-c3ccc(O)cc3)coc12 [genistein, 8-methyl] | inactive: 0 |
| CNCCC=C1c2ccccc2CCc2ccccc21 [Nortriptyline hydrochloride] | inactive: 0 |

| Structure (SMILES) | phenotypic hit |
| --- | --- |
| COc1ccc(C2CC(=O)c3ccc(OC)cc3O2)cc1 (stereo not drawn) [liquiritigenin dimethyl ether] | inactive: 0 |
| Cc1ccc2c(c1)CC[C@H]1CC(=O)CC[C@]21C [13-methyl-4,4-bisnor-8,11,13-podocarpatrien-3-one] | inactive: 0 |
| CC(=O)O[C@H]1CC[C@]2(C)[C@H]3CC[C@@]4(C)[C@H](c5ccoc5)OC(=O)[C@H]5O[C@]54[C@]3(C)[C@H](OC(C)=O)C[C@H]2C1(C)C [3beta-acetoxydeoxodihydrogedunin] | inactive: 0 |
| Cc1ccc(/C(=C\CN2CCCC2)c2ccccn2)cc1 [Triprolidine hydrochloride] | inactive: 0 |
| Cc1ccc(C(C)C)cc2c(C)ccc1-2 [guaiazulene] | inactive: 0 |
| NC(=O)c1ncn([C@@H]2O[C@H](CO)[C@@H](O)[C@H]2O)c1O [mizoribine] | inactive: 0 |
| CCc1cc(C(N)=S)ccn1 [ethionamide] | inactive: 0 |
| CC(=O)Nc1ccc(S(=O)(=O)Nc2ccc([N+](=O)[O-])cc2)cc1 [sulfanitran] | inactive: 0 |
| Cc1ccc(C(=O)Nc2ccc(S(=O)(=O)O)c3cc(S(=O)(=O)O)cc(S(=O)(=O)O)c23)cc1NC(=O)c1cccc(NC(=O)Nc2cccc(C(=O)Nc3cc(C(=O)Nc4ccc(S(=O)(=O)O)c5cc(S(=O)(=O)O)cc(S(=O)(=O)O)c45)ccc3C)c2)c1 [Suramin hexasodium] | inactive: 0 |
| COc1cc2cccc(OC)c(=O)c2c(OC)c1OC [purpurogallin tetramethyl ether] | inactive: 0 |
| CC(=O)OCC(=O)[C@@]1(O)CC[C@H]2[C@@H]3CCC4=CC(=O)CC[C@]4(C)[C@H]3C(=O)C[C@@]21C [cortisone acetate] | inactive: 0 |
| COc1cc(C(=O)N2CCOCC2)cc(OC)c1OC [trimetozine] | inactive: 0 |
| CCCCC(=O)O[C@]1(C(=O)CO)[C@@H](C)C[C@H]2[C@@H]3CCC4=CC(=O)C=C[C@]4(C)[C@@]3(F)[C@@H](O)C[C@@]21C [betamethasone valerate] | inactive: 0 |
| COc1cc(O)c(C(C)=O)c(OC)c1 [xanthoxylin] | inactive: 0 |
| COC(=O)CCC(=O)O[C@H]1CCC2(C)C(CCC3C2C(=O)[C@@H](O)C2(C)C3CC3OC4(CCC(C)CO4)[C@@H](C)C32)C1 (stereo partly drawn) | inactive: 0 |
| Nc1ccc(S(=O)(=O)Nc2ccc(Cl)nn2)cc1 [sulfachlorpyridazine] | inactive: 0 |
| CC(=O)NC(C(=O)O)C(C)(C)SN=O (stereo not drawn) [snap (s-nitroso-n-acetylpenicillamine)] | inactive: 0 |
| CC(C)(O)CC[C@@H](O)[C@](C)(O)[C@H]1CC[C@@]2(O)C3=CC(=O)[C@@H]4C[C@@H](O)[C@@H](O)C[C@]4(C)[C@H]3CC[C@]12C [crustecdysone] | inactive: 0 |
| Oc1ccc(O)cc1 [hydroquinone] | inactive: 0 |
| CC1=C2C(O)C(=O)OC3CC4C(C)(C)C(=O)C=C[C@]4(C)C(CC1)[C@]23C (stereo partly drawn) [merogedunin] | inactive: 0 |

| Structure (SMILES) | phenotypic hit |
| --- | --- |
| CC1CCC(NC(=O)N(CCCl)N=O)CC1 (stereo not drawn) [semustine] | inactive: 0 |
| CN(C)CCC=C1c2ccccc2C=Cc2ccccc21 [cyclobenzaprine hydrochloride] | active: 1 |
| O=c1cc(-c2ccccc2O)oc2cccc(O)c12 [5,2'-dihydroxyflavone] | inactive: 0 |
| COc1cc(/C=C/C(=O)O)ccc1O [ferulic acid] | inactive: 0 |
| CC(=O)O[C@H]1CC[C@]2(C)[C@H]3CC=C4[C@@H]5CC(C)(C)CC[C@]5(C)CC[C@@]4(C)[C@]3(C)CC[C@H]2C1(C)C [beta-amyrin acetate] | inactive: 0 |
| NS(=O)(=O)c1cc2c(cc1Cl)NCNS2(=O)=O [Hydrochlorothiazide] | inactive: 0 |
| Nc1ccc(C(=O)Oc2ccccc2)c(O)c1 [fenamisal] | inactive: 0 |
| O=c1[nH]c(=O)n([C@H]2C[C@H](O)[C@@H](CO)O2)cc1F [floxuridine] | inactive: 0 |
| C[n+]1cccc(C(=O)[O-])c1 [trigonelline] | inactive: 0 |
| O=C(/C=C/c1ccccc1)c1c(O)cc(O)cc1O [2',4',6'-trihydroxychalcone] | inactive: 0 |
| O=C(O)c1cc(O)c2c(c1)[C@H]([C@H]1c3cc(C(=O)O)cc(O)c3C(=O)c3c(O[C@@H]4O[C@H](CO)[C@@H](O)[C@H](O)[C@H]4O)cccc31)c1cccc(O[C@@H]3O[C@H](CO)[C@@H](O)[C@H](O)[C@H]3O)c1C2=O [sennoside a] | inactive: 0 |
| C[C@@H]1C(=O)O[C@H]2C[C@@]34[C@H]5C[C@@H](C(C)(C)C)[C@]36[C@@H](OC(=O)[C@@H]6O)O[C@@]4(C(=O)O5)[C@]21O [ginkgolide a] | inactive: 0 |
| C=C1CCC2C(CC2(C)C)C(=C)CC/C1=N/O (stereo not drawn) [5-hydroxyiminoisocaryophyllene] | inactive: 0 |
| CC1=CC(=O)CC(C)(C)C1(O)/C=C/C(C)=C\C(=O)O (mixture of isomers) [abscisic acid (cis,trans; +/-)] | inactive: 0 |
| Nc1ncnc2c1ncn2[C@@H]1O[C@H](COP(=O)(O)O)[C@@H](O)[C@H]1O [adenosine phosphate] | inactive: 0 |
| CCC(=O)O[C@H]1[C@H](O[C@@H]2[C@@H](C)[C@H](O[C@H]3C[C@@](C)(OC)[C@@H](O)[C@H](C)O3)[C@@H](C)C(=O)O[C@H](CC)[C@@](C)(O)[C@H](O)[C@@H](C)C(=O)[C@H](C)C[C@@]2(C)O)O[C@H](C)C[C@@H]1N(C)C [erythromycin estolate] | inactive: 0 |
| Oc1cc(O)c2c(c1)O[C@H](c1ccc(O)c(O)c1)[C@@H](O)C2 [cianidanol] | inactive: 0 |
| CC(N/C(=N\C#N)Nc1ccncc1)C(C)(C)C (stereo not drawn) [Pinacidil] | inactive: 0 |

From the supplement of paper PMC2702839
